Experimental data published in PubChem BioAssay (NCI).
Where “and” joins values, the source holds several entries; their conditions need not be identical. Equal entries are not always repeated.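 All cell lines were grown in 96-well plates and treated with compound for 48 hours. The concentration for 50% growth inhibition is given as GI50. TGI is the concentration that stops growth completely.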 Bridge positions count the residues as written; N and C are the ends. Peptide text beside a SMILES is read from it.

Test system: NCI-H322M lung
Assay: NCI tumour cell line growth inhibition, 48 h

Compound	TGI [µM]	GI50
CSC(=NC(=O)c1ccccc1)SCCSC(=NC(=O)c1ccccc1)SC	> 100	–
CCN(CC)CCCNC(=O)c1ccccc1Nc1c(Cl)cccc1Cl	29.4	–
CC(Oc1ccc2c(=O)cc(-c3ccccc3)oc2c1)C(=O)O (configuration not stated)	> 100	–
CC(C)(Cl)C(Cl)CC/C(CBr)=C(\Cl)CBr (configuration not stated)	26.1	–
CCOC(=O)c1c(Br)c(-c2ccc([N+](=O)[O-])cc2)c(Br)n1C	> 10	–
O=C(CS(=O)c1nc2ccccc2nc1-c1ccccc1)Nc1ccc(Cl)cc1 (configuration not stated)	77.7	25.7 µM
CSc1nc(SC)c2c(C)c(Br)[nH]c2n1	> 100	–
O=C(O)CCC1(CCC(=O)O)CCCCCCCCC(CCC(=O)O)(CCC(=O)O)C(=O)C1=O	> 100	–
CC[C@H](C)[C@H](NC(=O)[C@H]1CCCCN1C)C(=O)N(C)[C@H](C[C@@H](OC(C)=O)c1nc(C(=O)NC23C4C5C2C2C3C4C52C(=O)OC)cs1)C(C)C (some centres not stated)	> 25	0.00527 µM and 0.0116 µM
C=C1CCCC2OC(OC)CCC12 (configuration not stated)	> 100	–
CSc1c(S(C)=O)c2ccccc2n1C (configuration not stated)	> 100	–
N#CCCN(c1ccc(C=Nc2ccc(C(=O)O)cc2)cc1)S(=O)(=O)c1ccccc1	> 100	–
CC[C@@]1(O)C(=O)OCc2c1cc1n(c2=O)Cc2cc3cccc(N)c3nc2-1	61.4	20.7 µM
O=C(O)C1C2C=CC(O2)C1C(=O)NCc1ccncc1 (configuration not stated)	> 100	–
O=C1/C=C/[C@@H](O)[C@@H]2C[C@@H](O)C[C@H]2/C=C/CCC[C@H](CCc2ccc(NC(=S)Nc3ccc4c(c3)C(=O)OC43c4ccc(O)cc4Oc4cc(O)ccc43)cc2)O1	> 100	0.567 µM
COc1ccccc1-c1ccc2c(N)c(C(=O)c3ccc4c(c3)OCO4)sc2n1	25.1	6.56 µM
CC(C)OP(=O)(OC(C)C)/C(=N/Nc1ccc([N+](=O)[O-])cc1)NNC(=O)c1ccccc1	> 100	–
NC1C2C=CC(C2)C1C(=O)O (configuration not stated)	> 100	–
COc1cc2cnc3c4cc(O)ccc4ccc3c2cc1OC	> 100	–

Compound	TGI [µM]	GI50
Cc1ccc(-c2nc3ccccc3c(=O)n2NC2OC(CO)C(O)C(O)C2O)cc1 (configuration not stated)	> 100	–
Oc1ccccc1CNCc1ccccc1O	> 100	–
CC1(C)C=C(N2CCN(C3=CC(C)(C)NC(C)(C)C3)CC2)CC(C)(C)N1	> 100	–
O=C(Cn1c2ccc(Br)cc2c2nc3ccccc3nc21)N1CCOCC1	> 100	–
O=[N+]([O-])c1ccc(C2NC(=S)NC3c4cc([N+](=O)[O-])ccc4CCCC23)cc1 (configuration not stated)	> 100	–
O=C(OCC1CC(C2(O)CCCCC2)C(=O)O1)c1ccccc1 (configuration not stated)	> 100	–
CCC/C=C/C=C\C(=O)O[C@@H]1[C@@H](C)[C@]2(O)[C@@H]3C=C(C)C(=O)[C@H]3CC(COC(C)=O)=C[C@H]2[C@@H]2C(C)(C)[C@]12OC(C)=O	74.2	–
CN(CCCCCCCCNc1ccnc2ccccc12)Cc1ccc(-c2ccc(-c3ccc(C#N)cc3)s2)cc1	2.83	1.47 µM
Cc1cc2nc3c(C#N)c4c(c(Cl)n3c2cc1C)CCC4	> 100	–
O=c1oc2c(O)c(O)cc3c(=O)oc4c(O)c(O)cc1c4c23	> 100	–
Cn1c2ccccc2c2c(=O)n(CCCC(=O)NCCc3cnc[nH]3)c3c(-c4ccccc4)nnn3c21	29.4	11 µM
COC1=C(OC)C(=O)C(C/C=C/c2c(Cl)nc3sccn23)=C(C)C1=O	78.8	–
CN(C)C[C@@H]1CCn2cc(c3ccccc32)C2=C(C(=O)NC2=O)c2cn(c3ccccc23)CCO1	> 10	2.81 µM
COc1ccc(C(=O)/C=C/c2c(C(F)(F)F)nc3ccccn23)cc1OC	> 75.1	3.16 µM
CC(Cn1c(=O)oc2ccccc21)N(C)C (configuration not stated)	> 100	–
CCCCCCCCCCCCCCCCCC(=O)NCC(COP(=O)([O-])OCC[N+](C)(C)C)OCC (configuration not stated)	33.4	–
CCC(C)C1NC(=O)C(CC(C)C)NC(=O)C(C(C)C)NC(=O)C2CSSCC(NC1=O)C(=O)N2 (configuration not stated) (cyclo(CCVLI); disulfide 1-2; configuration not given here)	0.303	–
CCCCCC1CC(C(C)=O)CN1c1ccc(F)cc1 (configuration not stated)	> 100	–
COc1c(-c2ccc(F)cc2)oc2c(CC(=O)O)cccc2c1=O	> 100	–
